The values that follow come from patent publication US20180244796A1 (CARSGEN THERAPEUTICS, published 2018).

Assay [1] addresses human mesothelin on PANC-1-MSLN cells (human, UniProt Q13421 296-598). Kind of assay: cell-based or functional assay.
Assay [2] addresses T1, purified human mesothelin protein (recombinant, 6xHis tag) (human, UniProt Q13421 296-580).
T1 construct: also called hu-mesothelin; human mesothelin recombinant protein
Kind of assay: flow cytometry; CAR T cells stained with biotinylated human mesothelin recombinant protein and PE-labeled streptavidin. On the procedure: Infected CTL cells were detected by flow cytometry on day 8 of culture for the expression of different chimeric antigen receptors. Firstly, the infected CAR T cells were incubated with biotinylated human mesothelin recombinant protein for 1 h at 37° C., washed in D-PBS twice and then incubated with PE-labeled streptavidin for 40 min at 37° C. After washed with D-PBS for 3 times, the ratio of positive cells was determined by flow cytometry. Uninfected T lymphocytes was used as a negative control, the positive rates of virus-infected T cells expressing different chimeric antigen receptors are shown in Table 3.
In general terms: Flow cytometry measures light scatter and fluorescence of single cells or particles in a stream.

B1: chimeric antigen receptor P3F2-28Z on CTL cells (receptor)
chain: QMQLVQSGAEVKKPGASVKVSCKASGYTFTSYYMHWVRQAPGQGLEWMGIINPSGGSTSYAQKFQGRVTMTRDTSTSTVYMELSSLRSEDTAVYYCASSRSGTTVVNHDAFDIWGKGTTVTVSSGGGGSGGGGSGGGGSDIQLTQSPSSLSASVGDRVTITCRASQVISRALAWYQQTPGKPPKLLIYDASNLQSGVPSRFSGSGSGTDFTLTISRLQPEDFATYYCQQFNSYPLTFGGGTKLEIKRTTTPAPRPPTPAPTIASQPLSLRPEACRPAAGGAVHTRGLDFACDFWVLVVVGGVLACYSLLVTVAFIIFWVRSKRSRLLHSDYMNMTPRRPGPTRKHYQPYAPPRDFAAYRS[about 120 residues cut from this listing]
notes: Expressed on human CTL cells by lentivirus; also called scFv(MSLN)-CD28a-CD28b-CD3 zeta
For B1, in assay [1], the “CYTOTOXICITY (%), effector target ratio 1:1, LDH release, 18 h” value is 59.3% and the “CYTOTOXICITY (%), effector target ratio 1:3, LDH release, 18 h” value is 28.7%. The “Positive rate of CTL cells transfection” value in assay [2] came to 86%.

B2: chimeric antigen receptor P1A6E-28Z on CTL cells (receptor)
chain: QVQLEQSGLGLVKPSQTLSLTCAISGDTVSSDSAAWNWIRQSPSRGLEWLGRTYYRSKWFNDYAVSVKGRITINSDTSKNQFSLQLNSVTPEDTAVYYCARSNSYYYYAMDVWGQGTLVTVSSGGGGSGGGGSGGGGSQAVLTQPSSLSASPGASASLTCTLRSGINVGIYRIYWYQQRPGSPPQILLTYKSDSDKYQGSGVPSRFSGSKDASANAGILLISGLQSEDEADYYCMIWHSGGWVFGGGTKVTVLGTTTPAPRPPTPAPTIASQPLSLRPEACRPAAGGAVHTRGLDFACDFWVLVVVGGVLACYSLLVTVAFIIFWVRSKRSRLLHSDYMNMTPRRPGPTRKHYQPYAPPRDFAAYRS[about 120 residues cut from this listing]
notes: as for B1
As to B2, in assay [1], the “CYTOTOXICITY (%), effector target ratio 1:1, LDH release, 18 h” value was 58.1%; the “CYTOTOXICITY (%), effector target ratio 1:3, LDH release, 18 h” value is 23.9%; the “CYTOTOXICITY (%), effector target ratio 3:1, LDH release, 18 h” value was determined as 89.4%. Also, the “Positive rate of CTL cells transfection” value in assay [2] is 73%.

B3: chimeric antigen receptor P3F2-Z on CTL cells (receptor)
chain: QMQLVQSGAEVKKPGASVKVSCKASGYTFTSYYMHWVRQAPGQGLEWMGIINPSGGSTSYAQKFQGRVTMTRDTSTSTVYMELSSLRSEDTAVYYCASSRSGTTVVNHDAFDIWGKGTTVTVSSGGGGSGGGGSGGGGSDIQLTQSPSSLSASVGDRVTITCRASQVISRALAWYQQTPGKPPKLLIYDASNLQSGVPSRFSGSGSGTDFTLTISRLQPEDFATYYCQQFNSYPLTFGGGTKLEIKRTTTPAPRPPTPAPTIASQPLSLRPEACRPAAGGAVHTRGLDFACDIYIWAPLAGTCGVLLLSLVIT[about 120 residues cut from this listing]
notes: Expressed on human CTL cells by lentivirus; also called scFv(MSLN)-CD8-CD3 zeta
B3: in assay [1], the “CYTOTOXICITY (%), effector target ratio 1:1, LDH release, 18 h” value was 29.9%; the “CYTOTOXICITY (%), effector target ratio 1:3, LDH release, 18 h” value is 15.7%; the “CYTOTOXICITY (%), effector target ratio 3:1, LDH release, 18 h” value was determined as 58.4%. Besides, the “Positive rate of CTL cells transfection” value in assay [2] worked out at 68%.

B4: chimeric antigen receptor P3F2-28BBZ on CTL cells (receptor)
chain: QMQLVQSGAEVKKPGASVKVSCKASGYTFTSYYMHWVRQAPGQGLEWMGIINPSGGSTSYAQKFQGRVTMTRDTSTSTVYMELSSLRSEDTAVYYCASSRSGTTVVNHDAFDIWGKGTTVTVSSGGGGSGGGGSGGGGSDIQLTQSPSSLSASVGDRVTITCRASQVISRALAWYQQTPGKPPKLLIYDASNLQSGVPSRFSGSGSGTDFTLTISRLQPEDFATYYCQQFNSYPLTFGGGTKLEIKRTTTPAPRPPTPAPTIASQPLSLRPEACRPAAGGAVHTRGLDFACDFWVLVVVGGVLACYSLLVTVAFIIFWVRSKRSRLLHSDYMNMTPRRPGPTRKHYQPYAPPRDFAAYRSKRGRKKLLYIFKQPFMRPVQTTQEEDGCSCRFPEEEEGGCEL[about 120 residues cut from this listing]
notes: Expressed on human CTL cells by lentivirus; also called scFv(MSLN)-CD28a-CD28b-CD137-CD3 zeta
Regarding B4, in assay [1], the “CYTOTOXICITY (%), effector target ratio 1:1, LDH release, 18 h” value stood at 62.9%; the “CYTOTOXICITY (%), effector target ratio 1:3, LDH release, 18 h” value was 30.7%; the “CYTOTOXICITY (%), effector target ratio 3:1, LDH release, 18 h” value amounted to 85.6%. In addition, the “Positive rate of CTL cells transfection” value in assay [2] came to 77%.

B5: chimeric antigen receptor P1A6E-Z on CTL cells (receptor)
chain: QVQLEQSGLGLVKPSQTLSLTCAISGDTVSSDSAAWNWIRQSPSRGLEWLGRTYYRSKWFNDYAVSVKGRITINSDTSKNQFSLQLNSVTPEDTAVYYCARSNSYYYYAMDVWGQGTLVTVSSGGGGSGGGGSGGGGSQAVLTQPSSLSASPGASASLTCTLRSGINVGIYRIYWYQQRPGSPPQILLTYKSDSDKYQGSGVPSRFSGSKDASANAGILLISGLQSEDEADYYCMIWHSGGWVFGGGTKVTVLGTTTPAPRPPTPAPTIASQPLSLRPEACRPAAGGAVHTRGLDFACDIYIWAPLAGTCGVLLLSLVIT[about 120 residues cut from this listing]
notes: as for B3
As to B5, in assay [1], the “CYTOTOXICITY (%), effector target ratio 1:1, LDH release, 18 h” value is 33.1%; the “CYTOTOXICITY (%), effector target ratio 1:3, LDH release, 18 h” value was determined as 13.7%; the “CYTOTOXICITY (%), effector target ratio 3:1, LDH release, 18 h” value came out at 63%. Further, the “Positive rate of CTL cells transfection” value in assay [2] turned out to be 58%.

B6: chimeric antigen receptor P1A6E-28BBZ on CTL cells (receptor)
chain: QVQLEQSGLGLVKPSQTLSLTCAISGDTVSSDSAAWNWIRQSPSRGLEWLGRTYYRSKWFNDYAVSVKGRITINSDTSKNQFSLQLNSVTPEDTAVYYCARSNSYYYYAMDVWGQGTLVTVSSGGGGSGGGGSGGGGSQAVLTQPSSLSASPGASASLTCTLRSGINVGIYRIYWYQQRPGSPPQILLTYKSDSDKYQGSGVPSRFSGSKDASANAGILLISGLQSEDEADYYCMIWHSGGWVFGGGTKVTVLGTTTPAPRPPTPAPTIASQPLSLRPEACRPAAGGAVHTRGLDFACDFWVLVVVGGVLACYSLLVTVAFIIFWVRSKRSRLLHSDYMNMTPRRPGPTRKHYQPYAPPRDFAAYRSKRGRKKLLYIFKQPFMRPVQTTQEEDGCSCRFPEEEEGGCEL[about 120 residues cut from this listing]
notes: as for B4
On to B6, for which, in assay [1], the “CYTOTOXICITY (%), effector target ratio 1:1, LDH release, 18 h” value stood at 63.8%; the “CYTOTOXICITY (%), effector target ratio 1:3, LDH release, 18 h” value was 32.5%; the “CYTOTOXICITY (%), effector target ratio 3:1, LDH release, 18 h” value came to 95.3%. Also, the “Positive rate of CTL cells transfection” value in assay [2] is 69%.
